Measurements taken from the supplement of paper PMC12217912.
The list shows a part of the results. Sequences were assembled here from the parent chain. Inactive controls read about 0.05.

B1: TEV protease; numbered along this chain (parent)
chain: MGESLFKGPRDYNPISSSICHLTNESDGHTTSLYGIGFGPFIITNKHLFRRNNGTLVVQSLHGVFKVKDTTTLQQHLVDGRDMIIIRMPKDFPPFPQKLKFREPQREERICLVTTNFQTKSMSSMVSDTSCTFPSGDGIFWKHWIQTKDGQCGSPLVSTRDGFIVGIHSASNFTNTNNYFTSVPKNFMELLTNQEAQQWVSGWRLNADSVLWGGHKVFMVKPEEPFQPVKEATQL

Variants of: B1
Experiment: raw area under fraction-flipped curve 0-4 h after induction (AUC4h, not background-subtracted), DNA-recorder readout of cleavage of the substrate (dimensionless); higher = more cleavage of the substrate by the protease variant
Conditions: temperature: 34 °C; time window: 0-4 h after rhamnose induction
Procedure: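 In vivo DNA recorder in E. coli TOP10(DE3) ΔrhaA at 34 °C. Each TEVp single-site mutant (parent TEVp 0) is paired with a single-site variant of the 7-mer TEVs (canonical ENLYFQ|S). The substrate sits between flexible linkers in a Bxb1-sfGFP-TEVs-SsrA fusion, so cleavage stabilises Bxb1 and speeds flipping of a recombination array, read by NGS. The value is the raw area under the fraction-flipped curve over 0-4 h after rhamnose induction (AUC4h), with ≥20 reads per time point. It is not background-subtracted; inactive controls average about 0.047.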
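Further: Bxb1 expression induced with 0.2% (w/v) L-rhamnose at OD600 near 0.5, cultures sampled hourly, flipped fraction per protease–substrate barcode pair counted by paired-end Illumina sequencing.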

Variant	area with substrate CNLYFQS	area with substrate FNLYFQS	area with substrate GNLYFQS	area with substrate HNLYFQS	area with substrate INLYFQS	area with substrate MNLYFQS	area with substrate PNLYFQS	area with substrate SNLYFQS	area with substrate TNLYFQS	area with substrate VNLYFQS	area with substrate WNLYFQS	area with substrate YNLYFQS	area with substrate LNLYFQS	area with substrate NNLYFQS	area with substrate QNLYFQS	area with substrate RNLYFQS	area with substrate KNLYFQS	area with substrate DNLYFQS
V113L	0.0668	0.0682	0.0714	0.0703	0.0641	0.0722	0.0604	0.0648	0.0661	0.0671	0.0697	0.0517	–	–	–	–	–	–
V113C	0.0982	0.0551	–	0.0626	0.0581	0.0672	0.068	0.0664	0.0682	0.0442	0.0646	0.06	0.0572	0.076	0.0765	0.0681	–	–
V113N	0.0506	–	0.0555	0.0494	–	0.0606	0.0541	–	0.0498	–	0.0542	0.0677	0.0558	0.0658	–	–	0.0662	–
V113H	0.0778	–	–	–	0.0986	0.0454	0.06	0.067	0.0734	–	0.0619	0.0403	0.0663	–	–	–	0.0594	–
V113D	0.052	0.0333	0.0574	0.0556	0.0548	0.0495	–	0.0532	0.0478	0.0446	0.0539	0.0455	0.0451	0.0537	–	–	0.0534	–
P104Y	0.0511	0.045	0.0514	0.0532	0.0605	0.0441	–	0.0393	0.0598	0.048	0.0512	0.0577	0.0655	0.0383	–	0.102	0.0568	–
V78G	0.0536	0.0559	–	0.0472	–	0.0479	0.0567	0.0521	0.067	–	0.059	–	0.0668	0.0609	–	–	0.0884	–
V78A	0.0688	0.0624	0.0638	0.0588	–	0.0813	0.061	0.0677	0.0498	–	0.0535	–	0.0616	–	0.0654	0.071	0.0557	–
I110H	0.0541	0.0571	0.0665	0.056	0.0626	–	0.0522	0.0553	0.0433	0.0559	–	0.0354	0.053	0.0424	–	–	0.0638	–
H76E	0.0789	–	0.0647	0.0654	0.0566	0.0584	0.07	0.0529	0.0768	0.0558	0.0631	0.0666	0.0574	0.0593	–	–	0.0685	–
I86R	0.0339	–	0.0387	0.027	0.0414	0.0412	0.0427	–	0.0565	–	0.0511	–	0.0468	–	–	0.0311	0.042	–
I86F	0.0646	0.053	0.0599	0.0695	0.0739	0.0622	0.0653	–	0.0671	–	0.0641	0.049	–	–	–	0.0463	0.0663	–
G80H	0.0639	0.0733	–	–	0.073	0.0605	0.0559	0.061	0.0648	0.066	0.0643	0.0488	0.059	0.0598	–	–	0.0781	–
L77T	0.0633	–	–	–	–	–	0.0601	–	0.065	–	0.0528	0.0535	0.0665	0.0463	0.0328	–	–	–
F92T	0.0912	0.0558	–	0.0533	–	0.0569	0.0651	0.0368	–	0.0816	0.0395	0.0767	0.0615	–	0.0726	–	–	–
D79V	0.0742	0.0546	0.0461	0.0665	0.0726	–	0.0608	0.0773	0.0666	0.0689	–	0.062	0.0636	0.0689	–	0.0611	0.0538	–

Variant	area with substrate CNLYFQS	area with substrate FNLYFQS	area with substrate GNLYFQS	area with substrate HNLYFQS	area with substrate INLYFQS	area with substrate MNLYFQS	area with substrate PNLYFQS	area with substrate SNLYFQS	area with substrate TNLYFQS	area with substrate VNLYFQS	area with substrate WNLYFQS	area with substrate YNLYFQS	area with substrate LNLYFQS	area with substrate NNLYFQS	area with substrate QNLYFQS	area with substrate RNLYFQS	area with substrate KNLYFQS	area with substrate DNLYFQS
D79L	0.0817	–	–	0.0704	0.0576	0.0769	0.0656	0.0843	–	0.0603	0.0636	0.0596	–	0.0733	–	–	–	–
D79G	0.0704	0.0694	–	0.0465	0.062	0.092	0.0631	0.06	0.0505	–	0.0518	–	0.0649	–	–	–	–	–
T115C	0.0714	0.0783	–	0.0734	0.0958	0.0469	0.0662	–	0.0628	0.0547	0.0612	–	–	0.063	–	–	0.0707	–
F101Q	0.0392	0.0715	0.0586	0.054	0.0443	–	0.0562	0.0392	0.0551	0.0504	0.0556	0.0351	0.0527	0.0464	–	–	0.0577	–
N116A	0.0653	0.0561	–	0.0823	–	0.0738	0.0604	0.0691	0.0702	0.0669	0.0617	0.0649	–	0.0525	–	–	–	–
F117M	0.0647	–	–	–	–	–	0.0598	–	0.0566	–	–	–	–	–	–	–	–	–
I85F	0.0466	0.0694	0.0756	–	0.0598	–	0.0617	0.0678	–	0.0608	0.0552	0.0677	0.0757	–	–	–	–	–
I85C	0.0551	0.0589	0.0838	0.052	–	0.0598	–	0.0583	0.0519	0.0656	0.0613	0.0501	–	–	0.0638	0.0402	–	–
I85K	0.0592	–	–	0.053	0.0459	–	0.0398	–	0.0527	–	0.0595	0.0441	–	0.047	–	–	0.0531	–
E103Y	0.0607	–	–	–	0.0622	–	–	–	0.0664	–	0.0554	–	–	–	–	–	–	0.0803
E103K	0.0732	–	–	–	–	–	0.0567	0.0643	0.0595	–	0.0742	0.0591	0.0486	0.0769	0.0667	–	0.0607	–
R106I	0.0671	0.0363	–	0.0638	0.0617	0.0721	0.083	–	0.0707	0.0745	0.0539	0.0927	–	0.0665	–	–	0.0544	–
K98Q	0.072	–	–	0.0487	–	0.049	0.0671	–	0.077	0.0581	0.0582	–	–	–	–	–	–	–
Q118A	0.0538	0.0699	0.0742	0.0545	0.0669	0.0636	0.0702	0.0662	–	–	0.0682	0.0641	0.075	–	–	–	0.0836	–
Q118G	0.0675	–	0.0607	–	0.0841	–	–	–	0.067	–	0.0516	–	0.0721	–	–	–	0.0664	–
